The results in this text go back to article PMC12136788.

The list shows a part of the results.

B1: chr3:176767854:176767855:-_ENSG00000177565_ENST00000430069|hu_hu|hu_hu_hu_mus_False|88_98 (ssRNA)
RNA: GGGAGUUCUACAGUCCGACGAUCGACAUCCUUGUUACUUGGAACAUCUUGCCCUCCUUCCCGUAUGCAGUGUCUAAGCACGAGCUGCGUAGGGCCACUCGUGCUGUUCUCACUGAGGUUCCAGAUUCUUGCCGUGGAGUCUCCCAACAGAGGAUUGAGCAUCA
B2: chr12:110720550:110720551:+_ENSG00000174437_ENST00000539276|hu_mus|motif|central (ssRNA)
RNA: GGGAGUUCUACAGUCCGACGAUCUUCCUCGAACCAAGCCAAAACGAAAGAUAUACAUGCUGCCAGCAGUAAAAUUCGGACGGGUAAGUCUUCAAACUGCUCAAUCACAAGUUCCAGCAAGGUUUUUCCUUCUUCAGCCGGCAACAACAGAGGAUUGAGCAUCA
B3: chr8:41682716:41682717:-_ENSMUSG00000039431_ENSMUST00000048898|mus_mus|FALSE|FALSE (ssRNA)
RNA: GGGAGUUCUACAGUCCGACGAUCCACAUCGCUGAGCUGCCAAUAAUUAUCAGGGAGGCCCAUUCGCUUGUAUUCUUCACUAAGGUCAACCAGCAACCAGCCCUGCUCCCGUUCUUCCUUAUCCAGCUUGGGGUUGAAGGAAAACAACAGAGGAUUGAGCAUCA
B4: chr2:126475859:126475860:-_ENSMUSG00000027361_ENSMUST00000110424|mus_hu|FALSE|FALSE (ssRNA)
RNA: GGGAGUUCUACAGUCCGACGAUCAGUUUCUGAAGAAUUGGACAAUGGAGCAGAUGCUUCAGCUAAGGCAGCUAAUGUAGCUAAUACUGAUGUAGAAGAGUUUCCAAACUGAACAGCAGAUACACCCGUUUCAUCUGUUGCCUUCAACAGAGGAUUGAGCAUCA
B5: chr16:94664741:94664742:+_ENSMUSG00000040785_ENSMUST00000117648|mus_hu|mus_mus_mus_hu_False|18_88 (ssRNA)
RNA: GGGAGUUCUACAGUCCGACGAUCUGGUACUGAUCUUGGUAGCUGAUACUCAGAAGAAAGGCUGGCCAAGGGUGUAUAUAUGCUGGUGUACUGGGGCAAACCUGGUAACACGUUUAUGUACGCUGGUGGUGUCUGGGUGAUAUCCAACAGAGGAUUGAGCAUCA
B6: 134094604_134094724_126_5pUTR_ENSG00000151502_ENST00000281187|human|control|control (ssRNA)
RNA: GGGAGUUCUACAGUCCGACGAUCCAGUGGGCGGGCGAGGGUCGGCCGUGCAAUGCUGCGGGGGGCAGCCGCACAGAGCCGGGUGUGGGUGGCCUGCGCCUGCCGGGUGGGGUCCAGCGCCGAGCAGCGCUGCGAGCUGCCCAGCAACAGAGGAUUGAGCAUCA
B7: chr1:219384882:219384883:+_ENSG00000143353_ENST00000366928|hu_hu|FALSE|FALSE (ssRNA)
RNA: GGGAGUUCUACAGUCCGACGAUCGGUCACUCCUAGAGAUUUUAACAUUGAGUUUGUCUCUUCUGCCCAAGAAUGAAGAACUAACUCAUCUGCAGUACCAUGACACUGAAAUAAUUCAGGAAGUACACCAUUACUCUUCUGAAGCAACAGAGGAUUGAGCAUCA
B8: chr15:55677894:55677895:-_ENSG00000260916_ENST00000569205|hu_hu|FALSE|FALSE (ssRNA)
RNA: GGGAGUUCUACAGUCCGACGAUCUGAACAUUCUGGGGCGGGCUCACAGCUGUCAGUGGGGGUCACAGAAUUCAACAUUUCUAUAUCUGACCCCUCAUGACUGAUGACAGUCCAACCACAAGAUGAAUCACUGUCACUGGAAUUCAACAGAGGAUUGAGCAUCA
B9: chr5:73612201:73612202:-_ENSMUSG00000070733_ENSMUST00000101127|mus_mus|FALSE|FALSE (ssRNA)
RNA: GGGAGUUCUACAGUCCGACGAUCUCACUUAGAAAUUGAGGUUGAGGCACAGAGUUUGUAGAAAAGACACCAAAUUUGGAAAGGAUCCAUCUAGAAGCUUCUUCAACCUGGAGCAGGCACUGAAGAGGGGCACGCUGGGAAAAGCAACAGAGGAUUGAGCAUCA
B10: chr11:68312385:68312386:+_ENSG00000110075_ENST00000393800|hu_mus|FALSE|FALSE (ssRNA)
RNA: GGGAGUUCUACAGUCCGACGAUCCUUGCUGAAGAAACUGGCGAGUAGUGGGUUCAAGGGGGACUCAUUUAGGAGGAAGCUAUACAAUUUCAUUAGCAAGGACUCAUCUUCCCCCAGUCUAUCAUUCAUCUGGGAGACAUCAGACAACAGAGGAUUGAGCAUCA
B11: chr7:7679991:7679992:-_ENSG00000106399_ENST00000396682|hu_hu|hu_hu_hu_mus_False|58_68 (ssRNA)
RNA: GGGAGUUCUACAGUCCGACGAUCUGGGAUGAAUCUUUUCCAGCUUCCCCACGAAGCACACGGGCCGGUCGAUGAAUUGAGCUAGCAUGCUGGCGUUGACGCGCGCUUUGGGGAGCUGCAUUAUGUCCUCCAUGAUUCUGCCGCCAACAGAGGAUUGAGCAUCA
B12: 3985545_3993019_514_CDS_ENSMUSG00000020658_ENSMUST00000111178|mouse|control|control (ssRNA)
RNA: GGGAGUUCUACAGUCCGACGAUCCACAAACGAGUUGGUGCCAAGGAUCUGCAGGUUCGGCUUCUCCGACUCCAGCAGCUUGGCCACCAUUUUGAGGAAGCUUUCCACGAAGAGGUUGAUACUCUGGCAGUGGCAGGCCAUGAGCAACAGAGGAUUGAGCAUCA
B13: chrX:106345308:106345309:+_ENSMUSG00000031246_ENSMUST00000033598|mus_mus|FALSE|FALSE (ssRNA)
RNA: GGGAGUUCUACAGUCCGACGAUCUUCUCUCAUCCACUUCCGAUUCUCUUCAUUAGCUGCAAUAUCUUUUUCUUCAAAUCCUAUUUUGUUGGCUUCUAAGAAACAAAGCACAUCUUGCUGUUUCUUCUUAAUCGCCGUAGAGCCCAACAGAGGAUUGAGCAUCA
B14: 71582422_71582805_3288_CDS_ENSMUSG00000031398_ENSMUST00000004326|mouse|control|control (ssRNA)
RNA: GGGAGUUCUACAGUCCGACGAUCUACACGGGGUUCUUGAACUGUCAGCAGAUGGGUUCCACUCACAGUGAUGGAGGUGCUUCCAUUGAUGAUGCUCCAGGUGGGCUCAAGGUGUGUGACCGUAGGGUCCUGGGUGUAGGUAUACAACAGAGGAUUGAGCAUCA
B15: 102446194_102446703_881_CDS_ENSG00000197102_ENST00000360184|human|control|control (ssRNA)
RNA: GGGAGUUCUACAGUCCGACGAUCCACUUUUUGAAUUUCUCGGAUCCAGCGGUUAACUCCAGAUUGUAACUGAUUAAGAAAUGUUGGGUCUUCAACCUUAUCACCAAAGUCUGUAACUUUUGGCUUUUCUCCACGCUCAUAACACAACAGAGGAUUGAGCAUCA
B16: chr2:128605524:128605525:-_ENSG00000144231_ENST00000272645|hu_hu|motif|central (ssRNA)
RNA: GGGAGUUCUACAGUCCGACGAUCCAAGGCUGCUCCAAGAUUCCAUGUCACCUGGGCCUGUGAGUUAUUUGAAACAGCAACCGGACCCCACGCCAAGCUGGGCUGUUUUCUCCAAAGGAAUUCUCAACUGUCUUCAACAGAAUUCAACAGAGGAUUGAGCAUCA
B17: chr4:99962207:99962208:+_ENSG00000164024_ENST00000296411|hu_hu|FALSE|FALSE (ssRNA)
RNA: GGGAGUUCUACAGUCCGACGAUCGCCGGCAGCAACAUCCAAAACUUCUCUAGCAAGCCUACAUACAAGUCGCAUCCCUUCUAUAUCUUCAGAUGAGAGUAAUUUAAUCUGAGAAGUACCUUUAAGAGCCUGUUCAGAUUCAGACAACAGAGGAUUGAGCAUCA
B18: chr2:217001844:217001845:+_ENSG00000079246_ENST00000392132|hu_hu|hu_hu_hu_mus_False|1_38 (ssRNA)
RNA: GGGAGUUCUACAGUCCGACGAUCACCAACUUGAGGAUUAGAUCUUUUGUCAUAAGCAUAUCGGACGAUGGCGACCAUGUUUAACUCAUCCAAAGCAUGAAUCAGGGAGGAAAGGGCAACAGCUGCCGCCUCAUCAUCUCUUGCCAACAGAGGAUUGAGCAUCA
B19: chr6:114281168:114281169:-_ENSG00000196591_ENST00000368632|hu_hu|hu_hu_hu_mus_True|1_8 (ssRNA)
RNA: GGGAGUUCUACAGUCCGACGAUCUUCCAUUUUUCGGUAUAAACCAUAAUUUAGCAGCAAGUUAUGAGUCAUCCGGAUUCUAUGAGGCUUCAUGGGAUGACCCUGGCCAUAAUAAUAAUUGCCAAUAUCACAGAUUCACUAGAACAACAGAGGAUUGAGCAUCA
B20: chr17:25064881:25064882:-_ENSMUSG00000024163_ENSMUST00000117509|mus_hu|FALSE|FALSE (ssRNA)
RNA: GGGAGUUCUACAGUCCGACGAUCGUAGUGCUCCACCUGGAUUUGCAGCUCUUUCUUCUCUUGUUCCAGAGCAUCUUCAAACUCAAUGAAUUUCUCCUCCGCCUGCCUGCGCAGCGCCUUCUCACGCUCGUACUGGGUGAGCAGCAACAGAGGAUUGAGCAUCA
B21: chr11:46405157:46405158:+_ENSG00000110492_ENST00000395566|hu_hu|hu_hu_hu_mus_False|1_1 (ssRNA)
RNA: GGGAGUUCUACAGUCCGACGAUCCCCUCCCCACUUUGGGCACUUGGUGUGGGCGUGAGAGGACAGGCGUGAUUGACAGAGCUGACAGGAAGACAAAAGGCACUGGUGGGUUAUAUCUUGGGCCUGUGGGAGAGGAGGCGUGGGCAACAGAGGAUUGAGCAUCA
B22: chr15:78798593:78798594:+_ENSMUSG00000033088_ENSMUST00000109689|mus_hu|FALSE|FALSE (ssRNA)
RNA: GGGAGUUCUACAGUCCGACGAUCUCCAGGGGGAUCCUGGAAGAAGAGGGAUGGCUCAGGAGCCUGGCGUGGUGGGGAUGAGAAGGAGGGUGCAUCCCGGUGCCCAAUGCACACAGGGGUGGGGAUGUGGGGGCACUCGUGCAGCAACAGAGGAUUGAGCAUCA

The target of the experiment is T1, UNK ZnF1-3 (human, UniProt Q9C0B0 31-174).
T1 sequence: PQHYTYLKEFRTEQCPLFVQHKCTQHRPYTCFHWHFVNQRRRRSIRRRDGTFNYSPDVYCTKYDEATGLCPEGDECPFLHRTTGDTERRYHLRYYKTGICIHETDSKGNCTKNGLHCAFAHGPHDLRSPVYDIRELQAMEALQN
As to the kind of experiment: nsRBNS (natural sequence RNA bind-n-seq); RBNS binding buffer (assumed for nsRBNS): 25 mM Tris pH 7.5, 150 mM KCl, 3 mM MgCl2, 0.01% Triton X-100, 500 ug/ml BSA, 20 U/ml SUPERase-In, 4 C; UNK is unkempt and MSI1 is Musashi-1; names of the RNAs are library labels; protein concentration not given here; high values mean tight binding.
For B1, the binding signal was determined as 0.517 enrichment R.
In the case of B2 it was 0.928 enrichment R; in that of B3, 1.43 enrichment R.
With B4, the binding signal turned out to be 0.909 enrichment R.
Take B5: the binding signal was found to be 0.979 enrichment R.
To B6 belongs 0.394 enrichment R.
Molecule B7 showed a binding signal of 0.977 enrichment R.
As to B8, the binding signal is 0.541 enrichment R.
Take B9: the binding signal turned out to be 2.67 enrichment R.
As for B10, the binding signal stood at 1.33 enrichment R.
In the case of B11 it was 0.987 enrichment R; in that of B12, 1.02 enrichment R.
To B13 belongs 0.604 enrichment R; to B14, 0.724 enrichment R; to B15, 0.635 enrichment R.
On to B16, for which the binding signal came to 1.09 enrichment R.
B17 yielded a binding signal of 1.89 enrichment R.
As for B18, the binding signal came to 1.49 enrichment R.
In the case of B19, the binding signal amounted to 0.889 enrichment R.
To B20 belongs 0.899 enrichment R; to B21, 2.67 enrichment R; to B22, 1.74 enrichment R.
